# Measured values: PubChem BioAssay AID504832 (National Center for Advancing Translational Sciences (NCATS), 2011)
# Screen size: about 310,000 compounds; about 18,000 (5.8%) were called active. Inconclusive results, whose numbers are uncertain, are shown with a selection of clear calls. Calls come from the whole dose curve; as a rule, active = well fitted inhibition curve with a large enough effect; inconclusive = small, poorly fitted or top-dose-only effect, or another doubt; inactive = no such curve, though single readings can be large or run the other way. No potency is given beside an inconclusive call; the fits are too rough.
# Test: Primary qHTS for delayed death inhibitors of the malarial parasite plastid, 48 hour incubation
# Conditions: P. falciparum luciferase growth in erythrocytes; series mostly up to 28.7 µM; activity change, negative = inhibition: at the top concentration
# Procedure, shortened: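 Firefly luciferase activity from engineered P. falciparum reports growth; inhibitors lower the luminescent signal. Cultures contained 2% hematocrit erythrocytes at 0.1% final parasitemia.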
# % is set by controls: 0 for no effect and ±100 for the full control effect; potency is the fitted concentration of half-maximal effect; tags give direction and shape of the fitted curve.
Compound,"activity change, negative = inhibition",Potency
N#Cc1ccccc1CCN1C(=O)c2ccccc2C1=O,inactive: -18.1%,–
O=C(CSc1ccc(-c2ccccn2)nn1)N1CCc2ccccc21,inactive: 3.96%,–
COc1cc(-c2cc(C(=O)Nc3ccc(S(=O)(=O)NCc4ccco4)cc3)c3ccccc3n2)cc(OC)c1OC,–,active: 10.4 µM
O=C(Cn1cc([N+](=O)[O-])cn1)Nc1ccccn1,inactive: 11.6%,–
CCOC(=O)C1CCCN(CC(=O)Nc2c(C(=O)OC)[nH]c3ccc(C)cc23)C1 (centres undefined),–,"inconclusive [inhibitor, partial curve, poor fit]"
CC1Nc2ncnc(N3CCN(c4ccccn4)CC3)c2N(Cc2ccccc2)C1=O (centres undefined),–,active: 11.7 µM
CC(=O)NC(CC(=O)N(Cc1ccccc1)c1ccc(C)cc1)c1ccccc1 (centres undefined),–,"inconclusive [inhibitor, partial curve]"
Cc1ccc([N+](=O)[O-])cc1NC(=O)Nc1onc(C)c1C,–,"inconclusive [inhibitor, single point]"
CCOP(=O)(c1ccccc1)c1nc(-c2ccc(F)cc2)oc1N1CCCCC1 (centres undefined),–,active: 9.28 µM
Cc1sc(NC(=O)c2cccnc2)nc1-c1ccccc1,–,"inconclusive [inhibitor, single point]"
COc1ccc(/C=C2\SC(=O)N(CCC(=O)N3CCCCC3)C2=O)cc1OC,–,"inconclusive [inhibitor, full curve, poor fit]"
COc1cc(OC)cc(-c2nnc(SCc3c(F)cccc3Cl)o2)c1,–,"inconclusive [inhibitor, single point]"
O=C(c1cc[n+]([O-])cc1)N1CCc2c([nH]c3ccccc23)C1c1ccccc1Cl (centres undefined),–,"inconclusive [inhibitor, single point]"
CCCCCCSc1cc(-c2nc3ccc(C)cn3c2NCc2ccccc2)ccc1OC,–,active: 4.15 µM
O=C(CCC(=O)Nc1cccc(Cl)c1)N/N=C/c1cc([N+](=O)[O-])ccc1O,–,"inconclusive [inhibitor, partial curve, poor fit]"
O=S(=O)(NCC1CCCN(Cc2ccccc2O)C1)c1cccc2cccnc12 (centres undefined),–,"inconclusive [inhibitor, single point]"
COc1ccc(-n2nc(C(=O)NCC(=O)NC3CCCCCC3)c3ccccc3c2=O)cc1OC,–,"inconclusive [inhibitor, partial curve, poor fit]"
C=CCn1c(SCC(=O)NCC(c2ccccc2)N(C)C)nnc1C1CCCCC1 (centres undefined),–,"inconclusive [inhibitor, partial curve, poor fit]"
COc1ccc(S(=O)(=O)N(CC(=O)Nc2cccnc2)c2ccccc2OC)cc1,–,"inconclusive [inhibitor, single point]"
Cc1cc(C)cc(Oc2nc3c(C)cccn3c(=O)c2/C=C(\C#N)C(=O)NC2CCS(=O)(=O)C2)c1 (centres undefined),–,active: 13.1 µM
CCOc1cc2[nH]c(=S)n(CCCOC)c(=O)c2cc1OCC,inactive: -7.88%,–
CCc1ccc(OCC(=O)NCC(c2ccc(Cl)cc2)N2CCCCC2)cc1 (centres undefined),–,"inconclusive [inhibitor, full curve]"
CCCCN1CC(=O)N2[C@H]3c4cc(Cl)ccc4OC[C@@H]3[C@H](C(=O)OCC)[C@]2(C)C1=O,–,"inconclusive [inhibitor, partial curve]"

Compound,"activity change, negative = inhibition",Potency
CCc1cc2c(=O)c(-c3nc4ccccc4n3C)c(C(C)C)oc2c(CN2CCN(C)CC2)c1O,–,"inconclusive [inhibitor, single point]"
Cc1ccc(CONS(=O)(=O)c2cc(C)ccc2C)cc1,–,"inconclusive [inhibitor, single point]"
Cc1ccc2nc(SCC(=O)Nc3cccc([N+](=O)[O-])c3)[nH]c2c1,inactive: 9.17%,–
O=C(N/N=C/c1ccc2ncccc2c1)c1cc(-c2cccs2)nc2ccccc12,–,"inconclusive [inhibitor, single point]"
CN(C)CCCNCCCNC(=O)/C(=N\O)c1ccccc1,–,"inconclusive [inhibitor, single point]"
Cc1cccc(CC(Cc2nc3ccccc3[nH]2)c2nc3ccccc3[nH]2)c1 (centres undefined),–,"inconclusive [inhibitor, partial curve]"
CCOc1ccc(N2C(=O)c3cccnc3C2Nc2ccc(Cl)cc2)cc1 (centres undefined),–,"inconclusive [inhibitor, partial curve, poor fit]"
O=c1c2ccccc2nc(/C=C/c2ccc([N+](=O)[O-])cc2)n1CCCO,inactive: -29.4%,–
Cc1cc(OCC(=O)O/N=C(\N)Cc2cccs2)ccc1Br,inactive: 4.4%,–
COc1ccc(CC(=O)NCCc2cnc[nH]2)cc1,inactive: 4.79%,–
O=c1c2ccccc2nc(SCc2nc3ccccc3s2)n1Cc1ccco1,inactive: 9.11%,–
O=S(=O)(c1ccc(F)cc1)n1ccc(-c2cccc(OCc3c(F)cccc3Cl)c2)n1,–,"inconclusive [inhibitor, partial curve, poor fit]"
Cc1ccc(Oc2nc(-c3cccnc3)nc3ccccc23)c([N+](=O)[O-])n1,inactive: -4.03%,–
Cc1ccc(-n2c(SCC(=O)Nc3ccc(Cl)cc3)nc(O)cc2=O)cc1,–,"inconclusive [inhibitor, single point]"
O=C(CNc1cccc(C(F)(F)F)c1)N/N=C/C1CCCCC1,inactive: 1.13%,–
CC1CCC(NC(=O)C2CCN(C(=O)Nc3ccccc3)CC2)CC1 (centres undefined),inactive: -5%,–
O=C(CSc1nc2ccccc2c(=O)n1-c1ccccc1F)Nc1ccc2c(c1)CCC2,–,"inconclusive [inhibitor, partial curve]"
Cc1ccc(C)c(NS(=O)(=O)c2ccc(-c3cnc(C4CC4)o3)cc2)c1,–,"inconclusive [inhibitor, single point]"
CC(C)Cn1c(SCC(=O)N2CCN(S(=O)(=O)c3ccccc3)CC2)nc2ccccc21,–,active: 3.29 µM
Cc1cccc(Cl)c1OCCCN1CCOCC1,inactive: 12.6%,–
O=C(OCC(=O)C12CC3CC(CC(C3)C1)C2)c1cccnc1Cl,inactive: 18.7%,–
COc1ccc(/C=N/n2cnc3c([nH]c4ccc(C)cc43)c2=O)cc1CN1CCCC1,–,"inconclusive [inhibitor, partial curve]"
COc1cccc2cc(C(=O)C3=C(O)C(=O)N(CCN4CCOCC4)C3c3ccc(C(C)(C)C)cc3)oc12 (centres undefined),–,"inconclusive [inhibitor, partial curve]"

Compound,"activity change, negative = inhibition",Potency
O=C(CN1CCN(c2nc(-c3ccccc3)cs2)CC1)Nc1ccc2c(c1)OCO2,inactive: -2.56%,–
O=[N+]([O-])c1ccc2c(OCc3nnc(-c4ccccc4Br)o3)ncnc2c1,–,"inconclusive [inhibitor, single point]"
C/C(=N\NC(=O)c1cccc(Cl)c1)C1C(=O)c2ccccc2C1=O,inactive: 34.7%,–
COc1ccc(C)cc1S(=O)(=O)N1CCC(C(=O)N2CCOCC2)CC1,–,"inconclusive [inhibitor, partial curve, poor fit]"
COCCn1c(SCC(=O)NC2CCCCC2)nnc1-c1ccncc1,inactive: 21.5%,–
COC(=O)c1[nH]c2ccc(C)cc2c1NS(=O)(=O)c1ccc(F)c(C)c1,–,"inconclusive [inhibitor, partial curve]"
COc1ccc(NC(=O)N2CCCC2C(=O)NCc2ccc(C)cc2)cc1 (centres undefined),inactive: 18.1%,–
COc1ccc(CCNCCC(=O)Nc2c(C)cc(C)cc2C)cc1OC,–,"inconclusive [inhibitor, single point]"
CC(=O)c1cc2c(cc1N(C(=O)c1ccco1)C(C(=O)NC1CCCC1)c1ccccc1F)OCO2 (centres undefined),–,"inconclusive [inhibitor, partial curve, poor fit]"
COc1ccc(/C=C/C(=O)c2cc(Br)ccc2O)cc1OC,inactive: -24.4%,–
O=C(NC1CCN(Cc2ccc(Cl)cc2)CC1)c1cn(-c2ccccc2)nc1-c1cccnc1,–,active: 1.85 µM
COc1cc(Cl)ccc1OCc1cc(C(=O)N2CC[C@@H]3CCCC[C@H]3C2)no1,–,"inconclusive [inhibitor, full curve, poor fit]"
Cc1cc(Cl)ccc1NC(=O)COC(=O)c1cc([N+](=O)[O-])ccc1N1CCOCC1,–,"inconclusive [inhibitor, single point]"
CCCCC(=O)Nc1nnc(S(=O)(=O)N2CCCCCC2)s1,inactive: 14.2%,–
O=C(CCn1nc(-c2ccc(Cl)cc2)ccc1=O)N1CCN(c2ccccn2)CC1,–,"inconclusive [inhibitor, single point]"
CC(OC(=O)C1CCN(S(=O)(=O)c2ccc(Cl)cc2)CC1)C(=O)N1CCc2ccccc21 (centres undefined),–,"inconclusive [inhibitor, partial curve]"
O=[N+]([O-])c1ccc(N/N=C/c2sc(N3CCOCC3)nc2-c2ccccc2)c(S(=O)(=O)Nc2ccccc2Cl)c1,–,active: 1.47 µM
CCC(C)NCCOCCOc1ccc(Cl)c2ccccc12 (centres undefined),–,"inconclusive [inhibitor, single point]"
O=C1C=CC(=C(c2ccc(O)cc2)c2ccc(O)cc2)C=C1,–,active: 7.38 µM
CC(C)CCn1c(=O)c2ccccc2n2c(CN(C)Cc3ccccc3)nnc12,–,"inconclusive [inhibitor, single point]"
O=C1c2ccccc2C(Nc2ccccc2)N1Cc1ccc2c(c1)OCO2 (centres undefined),–,"inconclusive [inhibitor, single point]"
CCn1c(=O)cc(SCC(=O)N2CCN(C3CCCCC3)CC2)c2ccccc21,–,"inconclusive [inhibitor, single point]"
NC(=O)c1cnn2c(C(F)(F)F)cc(-c3ccccc3)nc12,inactive: 11.3%,–
